Publication PMC12040169 (PLOS Biology, 2025)
The other results are listed elsewhere or left out.

Test system: T1, C. trachomatis L2/434/Bu expressing GFP (CTL2-GFP)
T1 construct: L2/434/Bu GFP intracellular growth in HeLa cells
Parameters: species or system HeLa; C. trachomatis total inclusion area by high-content imaging, normalised to DMSO
Conditions: total inclusion area; 28.5 h, 10 µM; inhibitor
Method in brief: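 High-content imaging followed the bulk GFP/resorufin measurement: fixed, Hoechst-stained cells were scored for GFP inclusions and host nuclei per well. Total inclusion area and count served as growth proxies, nuclei number as the viability proxy. MIC calculation matched the bulk assay.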

**Q.** With `Cn1cc(CNS(=O)(=O)c2ccc(F)c(Br)c2)cn1` [CBK305174] as the compound, how does the “% of control remaining” value read?
**A.** The value was 22.0103.

**Q.** `CCc1nccn1CCC(=O)NC1CCN(c2ccc(F)cc2)CC1` [CBK306760] was tested. Which “% of control remaining” value did it give?
**A.** Its value is 102.124.

**Q.** `O=C(c1ccc2[nH]c(=O)[nH]c2c1)N1CCCC2(CCN(C(=O)c3cc(F)c(F)cc3F)C2)C1` (stereo not drawn) [CBK131566] was tested. Which “% of control remaining” value did it give?
**A.** Its value is 81.727.

**Q.** Which “% of control remaining” value does the source give for `CC(C)C(=O)Nc1nnc(-c2ccc(Cl)cc2)o1` [CBK287593] here?
**A.** The value was 91.7362.

**Q.** For `Cn1cc(NC(=O)C2CCCN(c3ncccn3)C2)cn1` (stereo not drawn) [CBK304394], which “% of control remaining” value is on record?
**A.** Its value is 33.6596.

**Q.** With `Nc1nc(SCCCC(=O)NC2CCCCC2)nc2sc3c(c12)CCCC3` [CBK266176] as the compound, how does the “% of control remaining” value read?
**A.** The value was 126.203.

**Q.** With `CCCCc1cc(C[C@@H]2C[C@H](NS(C)(=O)=O)C2(C)C)no1` [CBK289702] as the compound, how does the “% of control remaining” value read?
**A.** Its value is 113.535.

**Q.** `O=C(NCCc1cccs1)NCc1cc(F)ccc1F` [CBK045363] was tested. Which “% of control remaining” value did it give?
**A.** The value was 100.538.

**Q.** For `CN(C)C(=O)CSc1nc2cc(Cl)ccc2c(=O)n1CC1CCCO1` (stereo not drawn) [CBK305932], which “% of control remaining” value is on record?
**A.** The value was 39.1341.

**Q.** For `Cc1cc(CC(=O)N2CCC(Cn3cncn3)(C3CCCCC3)CC2)on1` [CBK136795], which “% of control remaining” value is on record?
**A.** The value was 98.5086.

**Q.** `Clc1cc(Cl)cc(-c2cn3ccnc3c(NCc3ccncc3)n2)c1` [CBK066664] was tested. Which “% of control remaining” value did it give?
**A.** Its value is 142.495.

**Q.** With `COc1ccc(C2=NN(C(=O)CCC(=O)O)C(c3cccs3)C2)cc1OC` (stereo not drawn) [CBK266656] as the compound, how does the “% of control remaining” value read?
**A.** Its value is 99.4014.

**Q.** How did the “% of control remaining” value turn out when `CCc1ccc(-n2nc3ccc(NC(=S)NC(=O)c4cc5ccccc5o4)cc3n2)cc1` [CBK264258] was run?
**A.** Its value is 117.731.

**Q.** `O=[N+]([O-])c1cc2c(cc1C1NN=C(c3ccccc3)S1)OCO2` (stereo not drawn) [CBK262540] was tested. Which “% of control remaining” value did it give?
**A.** Its value is 94.9781.

**Q.** How did the “% of control remaining” value turn out when `O=C(c1ccncc1)N1C[C@H]2CCc3c(n[nH]c3C(F)(F)F)[C@H]2C1` [CBK282110] was run?
**A.** The value was 98.5012.

**Q.** `COC(=O)[C@@H](C)NC(=O)[C@@H]1CN(S(C)(=O)=O)CCN1C(=O)c1cccs1` [CBK289623] was tested. Which “% of control remaining” value did it give?
**A.** Its value is 94.8651.

**Q.** For `O=C(CNS(=O)(=O)c1ccc(F)cc1)N1CCOCC1` [CBK042214], which “% of control remaining” value is on record?
**A.** The value was 98.0315.

**Q.** For `CC(C)C(=O)N1CCCC(n2nc(-c3cccs3)ccc2=O)C1` (stereo not drawn) [CBK284038], which “% of control remaining” value is on record?
**A.** Its value is 38.7744.

**Q.** How did the “% of control remaining” value turn out when `COc1ccc(CN2CCC(N3CCCCC3)CC2)c(OC)c1` [CBK261848] was run?
**A.** The value was 84.7128.

**Q.** For `O=C(Nc1cncc(OC2CCNCC2)n1)c1ccoc1` [CBK036366T], which “% of control remaining” value is on record?
**A.** The value was 88.8834.

**Q.** `COc1ccc(CN2CCC(N3CCCCCC3)CC2)cc1OC` [CBK264721G] was tested. Which “% of control remaining” value did it give?
**A.** Its value is 105.875.

**Q.** For `Cc1cnc(NC(=O)c2ncoc2-c2cccs2)s1` [CBK283977], which “% of control remaining” value is on record?
**A.** Its value is 90.6762.

**Q.** For `Fc1ccc(OCCNCC2NCCc3c2[nH]c2ccccc32)cc1` (stereo not drawn) [CBK066972], which “% of control remaining” value is on record?
**A.** Its value is 84.3692.

**Q.** With `COc1ccc(/N=C2\S[C@H]3[C@H]([C@@H](O)[C@H](O)C[C@@H]3C(N)=O)N2Cc2ccc(F)cc2)cc1` [CBK288942] as the compound, how does the “% of control remaining” value read?
**A.** Its value is 108.822.

**Q.** For `O=C(N1CCOCC1)N1CCN(c2cncc(-c3ccc(O)cc3)n2)CC1` [CBK126946T], which “% of control remaining” value is on record?
**A.** Its value is 99.4989.

**Q.** How did the “% of control remaining” value turn out when `CCC(CN1CCCC1)NC(=O)C1(c2ccccc2)CCOCC1` (stereo not drawn) [CBK282758] was run?
**A.** Its value is 121.543.

**Q.** With `CC(C)(C)CC(C)(C)Nc1nc(N)nc(N)n1` [CBK022832] as the compound, how does the “% of control remaining” value read?
**A.** The value was 96.6101.

**Q.** `CCN(CC(=O)NCc1ccncc1)S(=O)(=O)c1ccccc1` [CBK269537] was tested. Which “% of control remaining” value did it give?
**A.** Its value is 127.206.

**Q.** Which “% of control remaining” value does the source give for `CC1COCC(C)N1c1ccc2nnc(-c3ccc(C(F)(F)F)cc3)n2n1` (stereo not drawn) [CBK009548] here?
**A.** The value was 75.5522.

**Q.** `O=C(CSc1nnc(CN2CCOCC2)n1-c1ccc(Cl)cc1)N1c2ccccc2SC2C=CC=CC21` (stereo not drawn) [CBK268820] was tested. Which “% of control remaining” value did it give?
**A.** The value was 90.6354.

**Q.** With `Cn1ncc2c(=O)n(Cc3nnsc3Cl)cnc21` [CBK237374] as the compound, how does the “% of control remaining” value read?
**A.** Its value is 86.4173.

**Q.** How did the “% of control remaining” value turn out when `Cc1ccc(-n2c(SCC(=O)Nc3ccccc3F)nnc2-c2ccccc2O)c(C)c1` [CBK268905] was run?
**A.** The value was 60.0092.

**Q.** How did the “% of control remaining” value turn out when `O=C(CN1CCCC[C@H]2CN(C(=O)c3cccs3)C[C@H]21)NC1CC1` [CBK285504] was run?
**A.** The value was 82.2529.

**Q.** With `CN(C)CCCC(=O)Nc1ccc2[nH]ccc2c1` [CBK159698] as the compound, how does the “% of control remaining” value read?
**A.** Its value is 107.105.

**Q.** How did the “% of control remaining” value turn out when `CC(C)(C)c1cc(NC(=O)Cn2nc(C(=O)O)c3ccccc3c2=O)n(-c2ccccc2)n1` [CBK297557] was run?
**A.** Its value is 94.2088.

**Q.** Which “% of control remaining” value does the source give for `CCOc1ccsc1C(=O)N1CCC(Cc2ccccc2)CC1` [CBK200186] here?
**A.** The value was 99.9504.

**Q.** For `O=C(O)c1ccc(S(=O)(=O)c2ccc3c(c2)C(=O)N(c2ccccc2-c2ccccc2)C3=O)cc1` [CBK262760], which “% of control remaining” value is on record?
**A.** Its value is 86.6747.

**Q.** With `O=C(Cn1cc(C(=O)NCC2(c3ccccc3)CCCC2)ccc1=O)NC1CCCC1` [CBK286040] as the compound, how does the “% of control remaining” value read?
**A.** Its value is 119.064.

**Q.** `COc1ccc(-c2cnc(N)c(-c3ccc(F)c(Cl)c3)n2)cn1` [CBK063966] was tested. Which “% of control remaining” value did it give?
**A.** Its value is 95.3716.
